The values below come from PubChem BioAssay (NCI).

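Five concentrations, 48 hours, 96-well plates. GI50 = concentration required for 50% inhibition of growth. The concentration for full growth arrest is given as TGI.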 Where only a bound is given, the exact number is not on record here.

The experiment deals with NCI-H322M lung. In words: growth of human tumour cells (NCI), 48 h.

`N#C[S-].[Ce+3].c1cnc2c(c1)ccc1cccnc12.c1cnc2c(c1)ccc1cccnc12.c1cnc2c(c1)ccc1cccnc12` yielded a TGI of 15.2 µM.

`O=C(c1ccccc1)C1C[C@H]2CO[C@H](c3ccccc3)N2C1=O` (some centres undefined) displayed a TGI of more than 100 µM.

For the compound `Cc1ccc(NC(=O)CC2C(=O)Nc3ccccc3S2=O)c(C)c1` (centres undefined), the TGI is more than 100 µM.

In turn, `CC1c2cc(c3c(c2O)CN([C@@H](C)C2CCCCC2)CO3)C(C)c2cc(c3c(c2O)CN([C@@H](C)C2CCCCC2)CO3)C(C)c2cc(c3c(c2O)CN([C@@H](C)C2CCCCC2)CO3)C(C)c2cc1c1c(c2O)CN([C@@H](C)C2CCCCC2)CO1` (some centres undefined) gave a TGI of 2.73 µM.

The compound `C#Cc1cc(CN(CC(=O)OC(C)(C)C)CC(=O)OC(C)(C)C)nc(CN(CC(=O)OC(C)(C)C)CC(=O)OC(C)(C)C)c1` showed a TGI of more than 100 µM.

Turning to `O=C(O)c1ccccc1Nc1ccc2nnc(-c3ccncc3)n2n1`, the GI50 is 10600 nM and the TGI was 23.6 µM.

Compound `COC1CC(OC)C(O)C(CO)O1` (centres undefined) yielded a TGI of more than 100 µM.

Compound `Cn1nc2ccccc2cc1=O` gave a TGI of more than 100 µM.

`O=[N+]([O-])c1ccc(C(=Nc2ccccc2)SSC(=Nc2ccccc2)c2ccc([N+](=O)[O-])o2)o1` showed a TGI of 3.37 µM.

The compound `Cc1ccc(SSCCCCCS(=O)O)cc1` gave a TGI of more than 100 µM.

Compound `c1cc(C[S+]2CCCC2)sc1C[S+]1CCCC1` registered a TGI of more than 100 µM.

For `COCN1C(=O)[C@@H]2CCCN2C(=O)c2ccc([N+](=O)[O-])cc21`, the TGI was more than 100 µM.

The compound `Cc1cc(=O)[nH]c(NNC(C#N)c2ccco2)n1` (centres undefined) had a TGI of more than 100 µM.

As to `C[CH2][Sn]([CH2]C)([O]C(=O)c1ccc(F)cc1)[O][Sn]([CH2]C)([CH2]C)[O]C(=O)c1ccc(F)cc1`, the GI50 is more than 100000 nM and the TGI is more than 100 µM.

`COC(=O)/C=C1/OC(c2ccc(C)cc2)=C(Cl)C1=O` yielded a TGI of 48.6 µM.

`CCCCCCCCCCCCC(CCCCCCCCCCCC)OP(=O)(O)O`: the TGI is more than 100 µM.

With `O=C(c1cccs1)N(Cc1cccnc1)C(=S)N(Cc1cccnc1)C(=O)c1cccs1`, the TGI was more than 100 µM.

With `CC(C)c1cccc(C(C)C)c1NC(=O)CCC(=O)NN`, the TGI is more than 100 µM.

As for `CC(C)(C)C(=O)/C=C/c1cccc(Oc2ccccc2)c1`, the TGI was determined as 37.1 µM.

As to `O=C(Cc1ccccc1)NS(=O)(=O)c1ccccc1`, the TGI was more than 100 µM.

In turn, `COc1ccc(C)cc1Nc1nnc(-c2ccc(N)cc2)s1` displayed a TGI of more than 100 µM.

As for `COc1ccc(C2S/C(=C\c3ccccc3)C(=O)N2NC(=O)Cc2ccccc2)cc1` (centres undefined), the TGI is more than 100 µM.

`Nc1nc(-c2cccs2)cs1`: the TGI is more than 100 µM.

In the case of `Cn1sc2ccccc2c1=S`, the TGI was more than 62.1 µM.

On to `O=NN(CCCl)C(=O)N[C@H]1CCCC[C@@H]1Cl`, for which the TGI is more than 100 µM.

Compound `C/C(=N/NC(N)=S)C(CN(C)C)C(C1=C(O)c2ccccc2OC1)c1ccccc1` (centres undefined) registered a TGI of more than 100 µM.

Compound `CCOC(=O)NC1CC2CCC1(OC)C=C2C` (centres undefined) showed a TGI of more than 100 µM.

On to `CC(C)c1ccc2nc3ccc(C(=O)NCCN4CCN(c5ccccc5)CC4)cn3c(=O)c2c1`, for which the TGI is more than 100 µM.

`Cc1cn(C2CC(NC(=NCC3OC(n4cnc5c(N)ncnc54)CC3O)NC#N)C(CO)O2)c(=O)[nH]c1=O` (centres undefined) returned a TGI of more than 100 µM.

Take `O=c1c(=[n+]2ccc(=C([O-])c3ccccc3)cc2)/c(=N/S(=O)(=O)c2ccccc2)c(=O)c2ccccc12`: the TGI was 29.2 µM.

The compound `O=C(O)CCSC(=S)Nc1ccc([N+](=O)[O-])cc1` displayed a TGI of more than 100 µM.

Take `COc1ccc2nc(-c3cc4c([nH]c5ccccc54)c(-c4ccc(F)c(F)c4)n3)[nH]c2c1`: the GI50 was 4930 nM and the TGI was 33.5 µM.

Take `O=C1C[C@H](CCC(=O)OCc2ccccc2)NC(=O)C[C@H](CCC(=O)OCc2ccccc2)NC(=O)C[C@H](CCC(=O)OCc2ccccc2)N1`: the TGI is more than 100 µM.

As for `Cc1cc(O)c2c(c1)CC(O)C1=C2C(=O)c2c(O)ccc(OC3CC(O)C(OC4CC(OC5CCC(O)C(C)O5)C(O)C(C)O4)C(C)O3)c2C1=O` (centres undefined), the TGI worked out at 9.43 µM.

In the case of `O=C1NC2C(CCO)CC=C[C@H]2c2cc3c(cc21)OCO3` (some centres undefined), the TGI is more than 100 µM.

In turn, `C[C@]12CCC(=O)C=C1CC[C@@H]1[C@@H]2[C@@H](O)C[C@@]2(C)[C@H]1CC[C@]2(O)C(=O)COC(=O)C1CCCC1` registered a TGI of more than 100 µM.

Turning to `COc1ccc2c(c1)C(=O)c1c-2c(NCCN(C)C)nc2ccccc12`, the GI50 is 4540 nM and the TGI came to 19.3 µM.

The compound `O=C(CC(=O)N1N=C(N(c2ccccc2)c2ccccc2)CC1c1ccccc1)Nc1ccccc1` (centres undefined) had a TGI of more than 100 µM.

`CN1CCc2cc(N)cc3c2C1Cc1ccc2c(c1-3)OCO2` (centres undefined): the TGI was more than 73.7 µM.

Compound `CCc1ccccc1NC(=O)C(=O)CC(=O)c1sc(Nc2ccccc2Cl)nc1C` returned a TGI of more than 100 µM.

For the compound `Nc1nc(=Nc2ccccc2)ss1`, the TGI was more than 100 µM.

On to `COc1cccc(C2c3cc4c(cc3OC(N3CCCCC3)C2C)OCO4)c1OC` (centres undefined), for which the TGI stood at 72.2 µM.

Consider `N#CCc1nc(-c2cc3c(ccc4ccccc43)oc2=O)cs1`, for which the TGI was more than 100 µM.

Turning to `CCOC(=O)c1cc(OC(=O)CC)c2c(OC)ccc(OC)c2c1`, the TGI was more than 100 µM.

For `Nc1ccc(-c2ccc(-c3nc4cc(Cl)c(Cl)cc4[nH]3)cc2)cc1`, the GI50 was 1610 nM and the TGI was 20.6 µM.

Consider `COc1cc2c(cc1OC)C(=O)/C(=C/c1ccc([N+](=O)[O-])cc1)CC2`, for which the TGI was more than 10 µM.

`COC(=O)N/N=C(/Cc1occc(=O)c1O)C(=O)Nc1ccc([N+](=O)[O-])cc1[N+](=O)[O-]` returned a TGI of more than 100 µM.

For the compound `NC(CC(=O)O)(Cc1ccccc1)C(=O)O` (centres undefined), the TGI is more than 100 µM.

In turn, `FC(F)(F)c1nc(-c2ccccc2)oc1Sc1oc(-c2ccccc2)nc1C(F)(F)F` came in with a TGI of more than 100 µM.

Consider `Cc1cc2nc(C(Cl)Cl)nc(-c3ccccc3)n2n1`, for which the GI50 is 1840 nM and the TGI stood at 4.72 µM.

`COc1ccc(C(c2ccc3c(c2)OCO3)N2C(=O)CCC2C(=O)O)cc1` (centres undefined) registered a TGI of more than 100 µM.

For `Cc1ccc(NC(=O)c2cc3ccccc3cc2O)c(C)c1.Cc1ccc(NC(=O)c2cc3ccccc3cc2[O-])c(C)c1.[Ni+2]`, the GI50 was 2470 nM and the TGI turned out to be 8.15 µM.

`CC1(O)Oc2ccc3ccccc3c2C=C1C(N)=O` (centres undefined) showed a TGI of more than 100 µM.

For the compound `N#CC1(C#N)C(c2ccccc2)C=CC(c2ccc([N+](=O)[O-])cc2)C1(C#N)C#N` (centres undefined), the TGI came to 34.9 µM.

For `C=CCSSc1ncnc2c1ncn2C1OC(CO)C(O)C1O` (centres undefined), the GI50 was 4530 nM and the TGI is more than 100 µM.

As for `C=C(C)[C@@H]1CC[C@]2(C(N)=O)CC[C@]3(C)[C@H](CC[C@@H]4[C@@]5(C)C/C(=C/c6cccnc6)[C@H](O)C(C)(C)[C@@H]5CC[C@]43C)[C@@H]12`, the GI50 was 6370 nM and the TGI is more than 100 µM.

The compound `CCCCCCCCCCCCCCCCCC[N+](C)(C)Cc1ccc(C[N+](C)(C)CCCCCCCCCCCCCCCCCC)cc1` came in with a TGI of 39.8 µM.

The compound `N#CC(c1ccccc1)N(CCOCCOCCN(C(=O)c1cccc2ccccc12)C(C#N)c1ccccc1)C(=O)c1cccc2ccccc12` (centres undefined) gave a TGI of more than 100 µM.

Take `COc1ccc(N=CN(C)C)c(C)c1`: the TGI is more than 100 µM.

`Oc1cccc2c1[nH]c1c(C3=C[C@@]4(O)CC/C=C\CCCCN5CC[C@@H]3[C@]3(CC6/C=C\CCCCN6[C@H]34)C5)nccc12` (some centres undefined) had a TGI of 10.9 µM.

Take `Nc1nc(-c2ccc(Cl)cc2)cc(-c2ccccc2)c1-c1nc2ccccc2o1`: the GI50 was 4800 nM and the TGI was determined as 20.9 µM.

In the case of `COc1ccc(C2c3c(-c4ccccc4)nn(-c4ccccc4)c3Oc3ncn4nc(CC#N)nc4c32)cc1OC` (centres undefined), the TGI was more than 100 µM.

On to `COC(=O)C1(C(=O)OC)CC2=C(S(=O)(=O)c3ccccc3)C[C@H](C#N)[C@H]2C1`, for which the TGI was more than 100 µM.

The compound `CC(C)N1[C@@H]2CCCC[C@H]2N(C(C)C)P1(=O)C(=O)/C=C/c1ccccc1` registered a TGI of 11.9 µM.

As to `Nc1c2ccccc2nc2ccccc12` (tested in a mixture with another compound), the GI50 is 2770 nM and the TGI stood at 7.84 µM.

Take `COC(=O)[C@@]12C=CC(=O)[C@H]3C[C@@H](C(C(C)C)C1)[C@]32OC` (some centres undefined): the TGI was more than 100 µM.

With `COc1ccc2nc3ccccc3c(NCc3ccc(C)cc3)c2c1`, the GI50 was 2070 nM and the TGI worked out at 5.3 µM.

`O=C(OCc1ccccc1)N1CCCc2c(n(S(=O)(=O)c3ccccc3)c3ccccc23)C1` yielded a TGI of more than 100 µM.

The compound `CC1=Nc2ccccc2C12C(c1ccccc1)C(c1ccccc1)C(=O)N1c3ccccc3CC12` (centres undefined) registered a TGI of more than 100 µM.

As for `Oc1c(I)cc(I)cc1CN(Cc1ccccn1)Cc1ccccn1`, the GI50 is 714 nM and the TGI was determined as 27 µM.

For `O=C(/C=C/c1ccc2c(c1)OCO2)CC(=O)/C=C/c1ccc2c(c1)OCO2`, the TGI was more than 100 µM.

`CCOC(=O)C(C(=O)OCC)=c1sc(=C(C(=O)OCC)C(=O)OCC)s1` had a TGI of more than 100 µM.

In turn, `COc1cc(Nc2nc3cc(C(F)(F)F)ccc3nc2C)cc(OC)c1OC` had a TGI of 11.9 µM.

`Cn1c(=O)c2c(nc3n(C)c(=O)c4ccccc4n23)n(C)c1=O`: the TGI is more than 100 µM.

For `O=C(N/N=C(\c1nc2ccc(Cl)cc2[nH]c1=O)C(O)c1ccccc1Cl)c1ccncc1` (centres undefined), the TGI is more than 100 µM.

Turning to `CN(C)Cc1cc(/C=C/C(=O)c2ccc(Cl)c(Cl)c2)cc(CN(C)C)c1O`, the TGI came out at 28.7 µM.

Compound `O=C(NNC(=O)c1nsc2ccccc12)c1ccc(Cl)cc1` yielded a TGI of 46.2 µM.

For `c1ccc2c(c1)[nH]c1c2ncc2[nH]c3ccccc3c21`, the TGI came out at 8.9 µM.

`CCCCCC/C=C1\CCC(CN(C)C)C1=O` (centres undefined): the TGI came out at 32.2 µM.

In the case of `CC[CH2][Sn]([CH2]CC)([O]C(=O)Cc1ccc(F)cc1)[O][Sn]([CH2]CC)([CH2]CC)[O]C(=O)Cc1ccc(F)cc1`, the GI50 was 1280 nM and the TGI amounted to 2.55 µM.

As to `COc1cc2c(cc1OC)-c1cc3ccc(OC)c(OC)c3c[n+]1CC2`, the TGI was more than 100 µM.

On to `COc1cc(C)c(NC(=O)CN(C)C)cc1Nc1nc(Nc2cccc(F)c2C(N)=O)c2cc[nH]c2n1`, for which the GI50 is 1570 nM and the TGI was determined as 6.33 µM.

`CC(C)NC(=O)OCc1c(COC(=O)NC(C)C)c(-c2ccc[n+](COC(=O)C(C)(C)C)c2)n2c1CCC2` showed a TGI of more than 100 µM.

In the case of `Cn1c(=O)n2n(c1=O)[C@@H](c1ccccc1)[C@H]2c1ccccc1`, the TGI was more than 100 µM.
